What follows are compounds tested against T1, R. norvegicus MCT1 (F360C) (UniProt P36035+P53987, F360C). Details: not given.
T1 sequence (P36035+P53987 with tags, fused parts or gaps P53987:F360C): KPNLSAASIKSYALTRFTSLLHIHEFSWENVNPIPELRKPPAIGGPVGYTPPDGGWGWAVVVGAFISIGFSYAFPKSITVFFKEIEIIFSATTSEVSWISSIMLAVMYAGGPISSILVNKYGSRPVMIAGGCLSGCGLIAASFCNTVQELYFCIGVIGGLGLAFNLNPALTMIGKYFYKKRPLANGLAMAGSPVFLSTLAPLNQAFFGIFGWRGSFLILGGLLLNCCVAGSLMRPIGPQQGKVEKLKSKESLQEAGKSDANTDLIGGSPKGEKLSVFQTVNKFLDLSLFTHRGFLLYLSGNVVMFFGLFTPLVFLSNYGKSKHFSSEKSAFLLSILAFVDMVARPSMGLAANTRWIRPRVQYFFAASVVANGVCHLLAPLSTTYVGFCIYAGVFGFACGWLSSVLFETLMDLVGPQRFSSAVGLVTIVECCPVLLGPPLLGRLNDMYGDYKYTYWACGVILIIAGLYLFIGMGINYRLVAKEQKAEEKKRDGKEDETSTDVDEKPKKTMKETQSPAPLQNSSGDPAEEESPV
Format: cell-based

| Structure (SMILES) | Day1 | Day2 | Fraction | Offtarget_sub | Z.score | Percent AZD3965 [%] | Z-score |
| --- | --- | --- | --- | --- | --- | --- | --- |
| O=C(O)Cn1c(C(=O)Nc2nc(-c3ccccc3Cl)cs2)cc2ccccc21 [SR-27897] | 0.2576 | 0.802 | 0.3212 | 0.1161 | -3.5958 | – | – |
| COc1ccc(CCN(C)CCCOc2ccc(S(=O)(=O)c3c(C(C)C)c4ccccc4n3C)cc2)cc1OC.O=C(O)C(=O)O [SR-33805] | 0.336 | 0.901 | 0.3729 | 0.1773 | -3.805 | – | – |
| OCc1ccccc1O[C@@H]1O[C@H](CO)[C@@H](O)[C@H](O)[C@H]1O [Salicin] | – | – | – | – | – | -5.623 | 0.4251 |
| OCc1ccccc1O [Salicyl alcohol] | – | – | – | – | – | 5.564 | -0.4215 |
| NC(=O)c1ccccc1O [Salicylamide] | – | – | – | – | – | 4.251 | -0.3221 |
| O=C(Oc1ccccc1C(=O)O)c1ccccc1O [Salsalate] | – | – | – | – | – | 15.525 | -1.067 |
| CC1=C(C)C(=O)C(C(CCCCCC(=O)O)c2ccccc2)=C(C)C1=O (stereo not drawn) [Seratrodast] | 0.1847 | 0.7771 | 0.2377 | 0.0318 | -6.431 | – | – |
| O=C1c2ccc(Nc3ccc(F)cc3F)cc2CCc2ccc(OC[C@H](O)CO)cc21 [Skepinone-L] | 0.1972 | 0.8545 | 0.2308 | 0.0432 | -4.456 | 85.5135 | – |
| CC1=C(CC(=O)O)c2cc(F)ccc2/C1=C\c1ccc(S(C)(=O)=O)cc1 [Sulindac sulfone] | – | – | – | – | – | 0.4063 | -0.02714 |
| CC1=C(CC(=O)O)c2cc(F)ccc2/C1=C\c1ccc([S+](C)[O-])cc1 (stereo not drawn) [Sulindac, reference compound] | 0.2243 | 0.8596 | 0.2609 | 0.079 | -3.5285 | – | – |
| CCN(CC)CCNC(=O)c1c(C)[nH]c(/C=C2\C(=O)Nc3ccc(F)cc32)c1C.O=C(O)C[C@H](O)C(=O)O [Sunitinib Malate] | 0.1757 | 0.8667 | 0.2027 | 0.0304 | -4.054 | 88.6606 | – |
| CC(C(=O)O)c1ccc(C(=O)c2cccs2)cc1 (stereo not drawn) [Suprofen] | – | – | – | – | – | -0.3761 | 0.01254 |
| CCOC(=O)Oc1c(OC)cc(C(=O)O[C@@H]2C[C@@H]3CN4CCc5c([nH]c6cc(OC)ccc56)[C@H]4C[C@@H]3[C@H](C(=O)OC)[C@H]2OC)cc1OC [Syrosingopine] | 0.1298 | 0.7758 | 0.1673 | -0.0159 | -6.507 | – | – |
| C=CC[C@@H]1/C=C(\C)C[C@H](C)C[C@H](OC)[C@H]2O[C@@](O)(C(=O)C(=O)N3CCCC[C@H]3C(=O)O[C@H](/C(C)=C/[C@@H]3CC[C@@H](O)[C@H](OC)C3)[C@H](C)[C@@H](O)CC1=O)[C@H](C)C[C@@H]2OC [TACROLIMUS] | 0.3533 | 0.8731 | – | – | – | – | – |
| Cc1ccc(S(=O)(=O)N[C@@H](Cc2ccccc2)C(=O)CCl)cc1 [TCPK] | 0.2366 | 0.7851 | 0.3014 | 0.0833 | -4.917 | – | – |
| O=C1NC(=O)/C(=C\c2cccc(C(F)(F)F)c2)S1 [TCS PIM-1 4a] | 0.2915 | 0.6732 | 0.433 | – | -3.138 | 50.7263 | – |
| O=C(O)Cc1cc(I)c(Oc2cc(I)c(O)c(I)c2)c(I)c1 [TETRAC] | 0.1866 | 0.8316 | 0.2244 | 0.0463 | -4.108 | – | – |

Same assay, conditions: 10 μM

| Structure (SMILES) | Fraction | Percent AZD3965 [%] | Z.score |
| --- | --- | --- | --- |
| C=CC[C@@H]1/C=C(\C)C[C@H](C)C[C@H](OC)[C@H]2O[C@@](O)(C(=O)C(=O)N3CCCC[C@H]3C(=O)O[C@H](/C(C)=C/[C@@H]3CC[C@@H](O)[C@H](OC)C3)[C@H](C)[C@@H](O)CC1=O)[C@H](C)C[C@@H]2OC [TACROLIMUS] | 0.4047 | 51.6792 | -3.3785 |
| O=C(O)Cc1cc(I)c(Oc2cc(I)c(O)c(I)c2)c(I)c1 [TETRAC] | 0.2244 | 82.6554 | -4.108 |
